Variants at the background level are over-represented here.
B1: tRNA (parent)
chain: CUCUCGGUAGCCAAGUUGGUUUAAGGCGCAAGACUUUAAUUUAUCACUACGAAAUCUUGAGAUCGGGCGUUCGACUCGCCCCCGGGAGAUUUUUUCCUCGAGCAA

Variants of: B1
Test: nonsense suppression (GFP-seq) (ratio to wild type); higher = more function; SUP4oc tRNA, yeast GFP reporter sort-seq
In short: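 Sorted GFP/RFP bins of yeast were each Illumina-sequenced with a phred ≥30 cutoff; the cells held a genome-integrated ochre-suppressor tRNA variant from a library with ~3% random mutations, a galactose-driven GFP ochre reporter, and RFP. Culture was in raffinose/galactose medium containing 80 mg/L adenine. Nonsense suppression, termed GFPSEQ, is the median GFP/RFP of the bins weighted by each variant's estimated cell share per bin, relative to the unmutated parent tRNA, for variants reaching ≥100 reads and ≥30 cells.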

| Variant | nonsense suppression |
| --- | --- |
| CCCUCGGUAGCCAAGUUGGCUUAAGGCGCAAGACUUUAAUUUAUCACUACGAAAUCUUGAGAUCGGGCGUUCGACUCGCCCCCGGGAGAUUUUUUCCUCGAGCAA [U2C U20C] | 0.0975 |
| CCCUCGGUAGCCAAGUUGGCUUAUGGCGCAAGACUUUAAUUUAUCACUACGAAAUCUUGAGAUCGGGCGUUCGACUCGCCCCCGGGAGAUUUUUUCCUCGAGCAA [U2C U20C A24U] | ≤ 0.026 |
| CCCUCGGUAGCCAAGUUGGUCUAAGGCGCAAGACUUUAAUUUAUCACUACGAAAUCGUGAGAUCGGGCGUUCGACUCGCCCCCGGGAGAUUUUUUCCUCGAGCAA [U2C U21C U57G] | ≤ 0.026 |
| CCCUCGGUAGCCAAGUUGGUGUAAGGCGCAAGACUUUAAUUUAUCACUACGAAAUCUUGAGAUCGGGGGUUCGACUCGCCCCCGGGAGAUUUUUUCCUCGAGCAA [U2C U21G C68G] | ≤ 0.026 |
| CCCUCGGUAGCCAAGUUGGUUGAAGGCGCAAGACUUUAAUUUAUCACUACGAAAUCUUGAGAUCGGGCGUUCGACUCGCCCCCGGGAGAUUUUUUCCUCGAGCAA [U2C U22G] | ≤ 0.026 |
| CCCUCGGUAGCCAAGUUGGUUGAAGGCGCAAGGCUUUAAUUUAUCACUACGAAAUCUUGAGAUCGAGGGUUCGACUCGCCCCCGGGAGAUUUUUUCCUCGAGCAA [U2C U22G A33G G66A C68G] | ≤ 0.026 |
| CCCUCGGUAGCCAAGUUGGUUUAAGGCGCAAGACCUUAAUUUAUCACUACGAAAUCUGGAGAUCGGGCGUUCGACUCGCCCCCGGGAGAUUUUUUCCUCGAGCAA [U2C U35C U58G] | ≤ 0.026 |
| CCCUCGGUAGCCAAGUUGGUUUAAGGCGCAAGACGUUAAUUUAUCACUACGAAAUCUUGAGAUCGGGCGUUCGACUCGCCCCCGGGAGAUUUUUUCCUCGAGCAA [U2C U35G] | ≤ 0.026 |
| CCCUCGGUAGCCAAGUUGGUUUAAGGCGCAAGACUUUAAUUUAUCACUACGAAAUCAUGAGAUCGGGCGUUCGACUCGCCCCCGGGAGAUUUUUUCCUCGAGCAA [U2C U57A] | 0.0292 |
| CCCUCGGUAGCCAAGUUGGUUUAAGGCGCAAGACUUUAAUUUAUCACUACGAAAUCGUGAGAUCGGGCGUUCAACUCGCCCCCGGGAGAUUUUUUCCUCGAGCAA [U2C U57G G73A] | ≤ 0.026 |
| CCCUCGGUAGCCAAGUUGGUUUAAGGCGCAAGACUUUAAUUUAUCACUACGAAAUCUUGAGAGCGGGCGUUCAACUCGCCCCCGGGAGAUUUUUUCCUCGAGCAA [U2C U63G G73A] | ≤ 0.026 |
| CCCUCGGUAGCCAAGUUGGUUUAAGGCGCAAGACUUUAAUUUAUCACUACGAAAUCUUGAGAUCGGGCGUUCGACGCGCCCCCGGGAGAUUUUUUCCUCGAGCAA [U2C U76G] | ≤ 0.026 |
| CGCUCGGUGCCCAGGUUGGUUUAAGGCGCAAGACUUUAAUUUAUCACUACGAAAUCUUGAGAUCGGGCGUUCGACUCGCCCUCAGGAGAUUUUUUCCUCGAGCAA [U2G A9G G10C A14G C82U G84A] | ≤ 0.026 |
| CGCUCGGUGGCCAAGUUGGUUUAAGGCGCAAGACUUUAAUUUAUCACUACGAAAUCUUGAGAUCGGGCGUUCGACACGCCCCCGGGAGAUUUUUUCCUCGAGCAA [U2G A9G U76A] | ≤ 0.026 |
| CGCUCGGUAGCCUAGUUGGUUUAAGGCGAAAGACUUUAAUUUAUCACUACGAAAUCUUGAGAUCGGGCGUUCGACUCGCCCCCGGGAGAUUUUUUCCUCGAGCAA [U2G A13U C29A] | ≤ 0.026 |
| CGCUCGGUAGCCAGGUUGGUUUAAGGCGGAAGACUUUAAUUUAUCACUACGAAAUCUUGAGAUCGGGCGUUCGACUCGCCCCCGGGAGAUUUUUUCCUCGAGCAA [U2G A14G C29G] | ≤ 0.026 |
| CGCUCGGUAGCCAGGUUGGUUUAAGGCUCAAGACUUUAAUUUAUCACUACGAAAUCGUGAGAUCGGCCGUUCGACUCGCCCCCGGGAGAUUUUUUCCUCGAGCAA [U2G A14G G28U U57G G67C] | ≤ 0.026 |
| CGCUCGGUAGCCAUGUUGGUUUAAGGCGCAAGACUUUAAUUUAUCACUACGAAAUCUUGAGAUCGGGCGUUCGACUCGCCCCCGGGAGAUUUUUUCCUCGAGCAA [U2G A14U] | ≤ 0.026 |
| CGCUCGGUAGCCAUGUUGGCUUAAGGAGCAAGACUUUAAUUUAUCACUACGAAAUCUUGAGAUCGGGCGUUCGACUCGCCCCCGUGAGAUUUUUUCCUCGAGCAA [U2G A14U U20C C27A G85U] | ≤ 0.026 |
| CGCUCGGUAGCCAAGUUGGUUUCAGGCGCAAGACUUUAAUUUAUCACUACGAAAUCUUGAGAUCGGGCGUUCGACCCGCCCCCGGGAGAUUUUUUCCUCGAGCAA [U2G A23C U76C] | ≤ 0.026 |
| CGCUCGGUAGCCAAGUUGGUUUGAGGAGCAAGACUUUAAUUUAUCACUACGAAAUCUUGAGAUCGGGCGUUCGACUAGCCCCCGGGAGAUUUUUUCCUCGAGCAA [U2G A23G C27A C77A] | ≤ 0.026 |
| CGCUCGGUAGCCAAGUUGGUUUUAGGCGCAAGACUUUAAUUUAUCACUACGAAAUCUGGAGAUCGGGCGUUCGACUCGCCCCCGGGAUAUUUUUUCCUCGAGCAA [U2G A23U U58G G88U] | ≤ 0.026 |
| CGCUCGGUAGCCAAGUUGGUUUAUGGCGCAAGACUUUAAUUUAUCACUACGAAAUCUUGAGAUCGGGCGUUCGACUCACCCCCGGGAGAUUUUUUCCUCGAGCAA [U2G A24U G78A] | ≤ 0.026 |
| CGCUCGGUAGCCAAGUUGGUUUAAGGCGCCAGACUUUAAUUUAUCACUACGAAAUCUUGAGAUCGGGCGUUCGACUCGCCCCCGGGAGAUUUUUUCCUCGAGCAA [U2G A30C] | ≤ 0.026 |
| CGCUCGGUAGCCAAGUUGGUUUAAGGCGCUAGACUUUAAUUUAUCACUACGAAAUCUUGAGAUCGGGCGUUCGACUCGCCCCCGGGAGAUUUUUUCCUCGAGCAA [U2G A30U] | ≤ 0.026 |
| CGCUCGGUAGCCAAGUUGGUUUAAGGCGCUAGAGUUUAAUUUAUCACUACGAAAUCUUGAGAUCGGGCGUUCGACUCGCCCCCGGGAGAUUUUUUCCUCGAGCAA [U2G A30U C34G] | ≤ 0.026 |
| CGCUCGGUAGCCAAGUUGGUUUAAGGCGCAAGCCUUUAAUUUAUCACUACGAAAUCUUGAGAUCGGGCGUUCGACUAGCCCCCGGGAGAUUUUUUCCUCGAGCAA [U2G A33C C77A] | ≤ 0.026 |

— the RNAGym collection of RNA variant scans (doi:10.1101/gad.245936.114)
